According to paper PMC4336329 (PLoS ONE, 2015):
Among all 310,000 compounds or so, about 2,200 (0.71%) showed an effect of 50% or more. Effects have a minus sign here. The list shows a part of the results.

Each compound was assayed against human ether-à-go-go-related gene (hERG) potassium channel (human, UniProt Q12809) (assay: primary screen, population patch clamp on CHO cells stably expressing hERG).
Chain of human ether-à-go-go-related gene (hERG) potassium channel (Q12809 whole entry, looked up): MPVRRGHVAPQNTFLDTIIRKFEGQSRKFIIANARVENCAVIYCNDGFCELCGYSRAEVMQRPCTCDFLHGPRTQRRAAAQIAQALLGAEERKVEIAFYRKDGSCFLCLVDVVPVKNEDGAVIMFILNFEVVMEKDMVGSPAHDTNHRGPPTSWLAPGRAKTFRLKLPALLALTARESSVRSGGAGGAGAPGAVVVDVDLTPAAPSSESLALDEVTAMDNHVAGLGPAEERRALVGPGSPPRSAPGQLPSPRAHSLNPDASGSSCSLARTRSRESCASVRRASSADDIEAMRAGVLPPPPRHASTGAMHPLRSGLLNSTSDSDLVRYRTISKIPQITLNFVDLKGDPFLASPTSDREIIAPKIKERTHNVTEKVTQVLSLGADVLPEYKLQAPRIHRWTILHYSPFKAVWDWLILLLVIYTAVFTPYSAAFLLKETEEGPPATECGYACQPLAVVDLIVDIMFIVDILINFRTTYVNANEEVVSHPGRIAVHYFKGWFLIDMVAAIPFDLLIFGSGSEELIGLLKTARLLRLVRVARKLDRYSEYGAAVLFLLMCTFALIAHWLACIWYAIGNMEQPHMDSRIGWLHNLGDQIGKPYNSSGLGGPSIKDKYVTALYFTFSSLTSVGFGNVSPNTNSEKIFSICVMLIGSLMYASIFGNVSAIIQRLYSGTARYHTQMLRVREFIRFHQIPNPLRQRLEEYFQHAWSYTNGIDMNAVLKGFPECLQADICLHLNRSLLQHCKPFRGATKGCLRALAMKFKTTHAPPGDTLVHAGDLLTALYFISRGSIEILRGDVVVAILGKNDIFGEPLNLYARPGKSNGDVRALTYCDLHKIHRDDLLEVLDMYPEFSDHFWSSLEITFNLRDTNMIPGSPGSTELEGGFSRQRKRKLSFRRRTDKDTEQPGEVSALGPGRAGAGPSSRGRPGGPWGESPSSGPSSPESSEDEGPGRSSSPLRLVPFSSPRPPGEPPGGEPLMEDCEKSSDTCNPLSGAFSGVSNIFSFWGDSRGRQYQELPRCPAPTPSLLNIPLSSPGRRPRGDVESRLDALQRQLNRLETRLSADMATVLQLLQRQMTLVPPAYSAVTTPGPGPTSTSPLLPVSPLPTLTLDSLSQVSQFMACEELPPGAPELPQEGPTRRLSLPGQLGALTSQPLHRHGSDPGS

SMILES	hERG current change (%, negative = inhibition) at 1uM
COc1ccc(N(CC(=O)Nc2ccc(S(=O)(=O)N3CCOCC3)cc2)S(=O)(=O)c2ccccc2)cc1	10.5%
COc1ccc(N2CCN(C(=O)c3cc(-c4cc(OC)ccc4OC)nc4ccccc34)CC2)cc1	11.5%
COc1ccccc1C(CNC(=O)C1CC(=O)N(Cc2ccc(C)cc2)C1)N1CCCC1 (centres unmarked)	2.22%
COc1ccccc1CC(=O)NNC(=O)c1ccc(C(C)(C)C)cc1	8.63%
CCO[C@H]1OC(C(=O)NC2CC2)=C[C@@H](c2ccccc2)[C@@H]1CCCO	12.1%
Cc1nn(-c2ccccc2)c2nc(C(F)(F)F)[nH]c(=O)c12	12.6%
Cl.O=C(NCCN1CCOCC1)c1cc(S(=O)(=O)Nc2ccccc2F)c(Cl)cc1Cl	10.3%
CC(=O)Nc1ccc(S(=O)(=O)N(Cc2cccnc2)Cc2cc3ccccc3[nH]c2=O)cc1	16.2%
O=C(c1cccs1)N1CCCC(c2nc3c(nnn3Cc3cccc(Cl)c3)c(=O)[nH]2)C1 (centres unmarked)	15.1%
O=C(CSc1nnc(Cc2cc(=O)[nH]c(=O)[nH]2)n1-c1ccc(Cl)cc1)N1CCc2ccccc21	10.4%
Cc1ccc(CNCc2ccco2)cc1.O=C(O)C(=O)O	6.22%
CC(=O)N1N=C2C3CCN(CC3)C2C1c1cccc2ccccc12 (centres unmarked)	9.46%
COc1ccc(/C=N/Nc2nc(C)c([N+](=O)[O-])c(N(C)c3ccccc3)n2)cc1OC	1.54%
CC(=O)c1ccc(N=C2C(=O)Nc3ccccc32)cc1	4.5%
CNC(=S)Nc1ccc(C(N)=O)cc1	10.2%
CCCc1nnc(NC(=O)Nc2ccccc2OC)s1	15.5%
CSCCC1NC(=O)N(C(C)C(=O)Nc2cc(Cl)cc(Cl)c2)C1=O (centres unmarked)	2.69%
Cc1cc(NC(=O)c2cc(C(C)C)on2)nn1Cc1ccc(Cl)cc1	9.74%
Cn1cc(C(=O)N2CCN(c3ccccn3)CC2)c(=O)c2cc(S(=O)(=O)N3CCOCC3)ccc21	-5.96%
COc1ccc(NC(=O)CC(Cc2ccc(Cl)cc2)C(=O)O)cc1 (centres unmarked)	14.3%
Cc1cc(C)cc(N(CC(=O)NCc2ccc(F)cc2)C(=O)CCC(=O)Nc2ccccn2)c1	13.1%
Cc1cc(C)c(S(=O)(=O)NC(C)C)c(C)c1-n1cnnn1	9.48%
CCCCOc1ccc(C(=O)NN2CCOCC2)cc1	11.5%
